Source: paper PMC4336329 (PLoS ONE, 2015)
The campaign covered roughly 310,000 compounds. About 2,200 (0.71%) showed an effect of 50% or more. The effect is printed as a negative number. Some of the results follow.

biological target: human ether-à-go-go-related gene (hERG) potassium channel (human, UniProt Q12809); assay: primary screen, population patch clamp on CHO cells stably expressing hERG
Sequence (Q12809 whole entry, looked up): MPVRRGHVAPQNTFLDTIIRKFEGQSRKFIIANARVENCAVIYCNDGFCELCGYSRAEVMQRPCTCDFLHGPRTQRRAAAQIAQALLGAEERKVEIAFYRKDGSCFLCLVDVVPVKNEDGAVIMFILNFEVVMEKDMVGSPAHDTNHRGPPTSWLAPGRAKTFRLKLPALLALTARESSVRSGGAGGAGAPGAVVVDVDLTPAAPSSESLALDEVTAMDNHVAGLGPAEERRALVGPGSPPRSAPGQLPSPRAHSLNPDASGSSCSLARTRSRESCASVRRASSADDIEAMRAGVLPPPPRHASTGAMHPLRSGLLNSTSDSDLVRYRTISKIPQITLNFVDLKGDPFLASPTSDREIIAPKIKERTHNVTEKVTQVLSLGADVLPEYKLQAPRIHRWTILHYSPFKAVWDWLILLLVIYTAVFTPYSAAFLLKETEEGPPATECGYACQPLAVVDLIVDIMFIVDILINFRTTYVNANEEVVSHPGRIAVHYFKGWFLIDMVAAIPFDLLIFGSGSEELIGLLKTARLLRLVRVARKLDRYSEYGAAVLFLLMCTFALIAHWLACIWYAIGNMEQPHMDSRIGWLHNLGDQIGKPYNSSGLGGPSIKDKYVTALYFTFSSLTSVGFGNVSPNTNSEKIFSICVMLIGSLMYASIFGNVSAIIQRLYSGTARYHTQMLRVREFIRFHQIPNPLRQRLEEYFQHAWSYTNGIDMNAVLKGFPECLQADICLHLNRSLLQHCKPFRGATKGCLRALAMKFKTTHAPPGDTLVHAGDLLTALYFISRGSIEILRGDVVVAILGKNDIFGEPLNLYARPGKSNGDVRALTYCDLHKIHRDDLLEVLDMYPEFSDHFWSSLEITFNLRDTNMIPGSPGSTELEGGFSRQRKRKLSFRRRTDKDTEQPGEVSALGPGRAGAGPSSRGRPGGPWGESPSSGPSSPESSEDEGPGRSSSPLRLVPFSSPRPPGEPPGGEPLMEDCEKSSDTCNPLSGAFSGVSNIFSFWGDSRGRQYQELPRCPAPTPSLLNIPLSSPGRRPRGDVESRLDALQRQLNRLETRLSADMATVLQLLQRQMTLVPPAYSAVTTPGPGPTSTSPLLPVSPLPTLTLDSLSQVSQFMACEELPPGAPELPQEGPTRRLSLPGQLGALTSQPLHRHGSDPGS

Row | Compound | hERG current change (%, negative = inhibition) at 1uM
1 | CC(C)C[C@]1(c2ccccc2)ON(c2ccccc2C(F)(F)F)C1=O | 9.78%
2 | O=C(N/N=C\c1cc(Br)cs1)C1COc2ccccc2O1 (stereo not drawn) | 15.8%
3 | CCOC(=O)C1=C(C)N(C)C(=O)NC1c1cccc([N+](=O)[O-])c1 (stereo not drawn) | 3.62%
4 | CC(=O)Nc1ccc(NC(=S)Nc2ccc(F)cc2)cc1 | 16.6%
5 | Cc1ccc(NC(=O)C(=O)NCc2ccccn2)cc1 | 19.1%
6 | O=C(NC1CC1)C1=C[C@H](c2c[nH]c3ccccc23)C[C@H](OCCCCO)O1 | 8.24%
7 | CSCCOC(=O)C1=C(C)NC(=O)CC1c1ccccc1Cl (stereo not drawn) | -8.29%
8 | Cc1ccc(S(=O)(=O)c2cc3c(=O)n4ccccc4nc3n(C)c2=N)cc1 | 6.7%
9 | CC(=O)Nc1sc(NC(=O)c2ccc(C)cc2)nc1-c1cccs1 | 12.2%
10 | c1ccc(-c2nc3ccccn3c2NCc2ccc3c(c2)OCO3)cc1 | -4.96%
11 | Cc1cc(C(=O)CSc2nnnn2C)c(C)n1CCc1ccc(Cl)cc1 | 5.51%
12 | Cc1cc(C)c2nc(NC(=O)c3ccc([N+](=O)[O-])o3)sc2c1 | 21.1%
13 | Cc1c(/C=N/O)c2ccccn2c1C(=O)c1ccc(F)cc1 | 15.8%
14 | CCC(=O)N/N=C/c1ccc(-c2ccc(Cl)cc2)o1 | 12.5%
15 | Cc1cccc(CSCc2ccc(C(=O)O)o2)c1 | 11%
16 | C/C(=N\NC(=O)CNC(=O)C1COc2ccccc2O1)c1ccco1 (stereo not drawn) | -1.43%
17 | CC(C)(COC(=O)Nc1ccccc1)COC(=O)Nc1ccccc1 | 0.646%
18 | Cc1c(N=C2N=C(NC(=O)NC(C)(C)C)c3ccccc32)c(=O)n(-c2ccccc2)n1C | 17.7%
19 | COc1ccc(C2CC(=O)C(C=NCCCN3CCOCC3)=C(O)C2)cc1 (stereo not drawn) | 19.9%

Row | Compound | hERG current change (%, negative = inhibition) at 1uM
20 | CS(=O)(=O)N1CCC(C(=O)Nc2ccc(F)cc2)CC1 | 12.9%
21 | Cc1cc(C)nc(N/N=C/c2cccc([N+](=O)[O-])c2)n1 | 9.55%
22 | COc1cccc(C=Nc2ccc(N3CCOCC3)cc2)c1O | 16.3%
23 | c1csc(C(c2nnnn2C2CCCC2)N2CCCC3(CCCCC3)C2)c1 (stereo not drawn) | 7.12%
24 | CCCCCCNS(=O)(=O)c1ccccc1Br | 7.86%
25 | N#Cc1ccc(-c2ccc(F)cc2)nc1Oc1ccc(Cl)c(Cl)c1 | 13.2%
26 | COc1ccc(N(C)S(=O)(=O)c2cccc(C(=O)NC3CCCCCC3)c2)cc1 | 2.6%
27 | O=C(Nc1ccccc1C(=O)O)c1ccc(CN2C(=O)c3ccccc3C2=O)cc1 | 12.7%
28 | COc1cccc(-c2csc(N3CCN(C(=S)Nc4ccccc4C)CC3)n2)c1 | 4.05%
29 | COC(=O)[C@@H](Cc1ccccc1)NC(=O)NCCc1c[nH]c2ccccc12 | 15.4%
30 | CCOc1ccc(NC(=O)C2C(c3ccccc3)C2(Cl)Cl)cc1 (stereo not drawn) | 14.8%
31 | NS(=O)(=O)c1ccc(NC(=O)COC(=O)c2ccc(Cl)nc2)cc1 | 8%
32 | COc1ccc2[nH]c(=O)c(CN(CCO)S(=O)(=O)c3c(C)ccc4nsnc34)cc2c1 | 5.08%
33 | CCC(C)c1ccc(NC(=O)COC(=O)CCNC(=O)c2ccco2)cc1 (stereo not drawn) | 4.32%
34 | CC(=O)Nc1ccc(NC(=O)CCN2C(=O)c3ccccc3C2=O)cc1 | 17%
35 | COc1ccc(CCNC(=O)Cn2c([N+](=O)[O-])cnc2C)cc1OC | 8.24%
36 | Cc1nnc(NC(=O)c2cccc(F)c2)s1 | 5.85%
37 | CCOC(=O)c1cccc(NC(=O)CCc2ccccc2)c1 | 2.84%
38 | Cc1ccc(NC(=O)CCN2C(=O)c3ccccc3C2=O)cc1 | 13.2%

Row | Compound | hERG current change (%, negative = inhibition) at 1uM
39 | CCn1cc(CN2CCC(n3nccc3NC(=O)c3ccccc3OC)CC2)cn1 | -53.5%
40 | Cc1ccc(C(=O)NC(=S)NCCCN2CCOCC2)cc1 | 3.73%
41 | O=C(COC(=O)c1cc(=O)[nH]c2ccccc12)Nc1ccc(Cl)cn1 | 12.1%
42 | O=C(O)C/C(=C\c1ccc(Cl)cc1)c1nc2ccccc2o1 | 12%
43 | N#CCNC(=O)c1nn2c(C(F)(F)F)cc(-c3ccccc3)nc2c1Br | 17.7%
44 | O=C(Nc1ccccc1C(=O)N1CCCC1)C1CCN(c2ncccn2)CC1 | -1.05%
45 | Cc1nc2c(=O)n(C)c(=O)[nH]c2n1Cc1ccccc1 | 5.17%
46 | Cn1c(NC(=O)Cc2cccc3ccccc23)cc(=O)n(C)c1=O | 9.64%
47 | S=c1nc(Cc2ccccc2)[nH]c2ccccc12 | 16.9%
48 | CCS(=O)(=O)c1ccc(O)c(N2C(=O)C3C4C=CC(C4)C3C2=O)c1 (stereo not drawn) | 13.3%
49 | CC(C)(C)c1cc[n+](-c2[nH]c(=O)sc2/C=N/NC([S-])=Nc2ccccc2)cc1 | -13.4%
50 | CCOC(=O)N1CCN(C(=O)CNS(=O)(=O)c2cccs2)CC1 | -8.19%
51 | CC1(c2ccc(OC(F)F)cc2)NC(=O)N(CC(=O)Nc2cccnc2Cl)C1=O (stereo not drawn) | -5.83%
52 | Cc1c(NC(=O)C(C)OC(=O)/C=C/c2ccc3c(c2)OCO3)c(=O)n(-c2ccccc2)n1C (stereo not drawn) | 4.18%
53 | Cc1sc2nc(COC(=O)CNC(=O)c3ccc(C(C)(C)C)cc3)[nH]c(=O)c2c1C | 7.78%
54 | COc1ccc(NC(=O)c2c(C(F)(F)F)nn(C)c2Cl)cc1 | -1.06%
55 | COc1ccc(S(=O)(=O)NC(CC(=O)NCc2ccccc2OC)c2ccco2)cc1 (stereo not drawn) | -21%
56 | CCOC(=O)/C(=N\Nc1cccc(C(F)(F)F)c1)N(CCOC)CCOC | -10.3%
57 | Cc1ccc(Cn2ccc(NC(=O)c3noc4c3CCc3ccccc3-4)n2)cc1 | 14.6%
